Laboratory results as given in a collection of fitness landscapes (doi:10.1016/j.celrep.2020.107928).
The full ranking holds about 81,000 sequences; the median of “one-hybrid fitness for binding parS DNA” is about -0.17, and the highest 2% start at about 0.51. The list shows a part of the results.

B1: Caulobacter ParB omega fusion; a variant is named by its letters at X, in order, B8GW30 (parent)
chain: MESVVVGEPGMSEGRRGLGRGLSALLGEVDAAPAQAPGEQLGGSREAPIEILQRNPDQPRRTFREEDLEDLSNSIREKGVLQPILVRPSPDTAGEYQIVAGERAWRAAQRAGLKTVPIMVRELDDLAVLEIGIIENVQRADLNVLEEALSYKVLMEKFERTQENIAQTIGKSXSHVANXMRLLXLPDEVQSYLVSGELTAXHARAIAAAADPVALAKQIIEGGLSVRETEALARKAPNLSAGKSKGGRPPRVKDTDTQALESDLSSVLGLDVSIDHRGSTGTLTITYATLEQLDDLCNRLTRGI

Variants of: B1
Assay: one-hybrid fitness for binding parS DNA (scaled: cognate 1, non-cognate 0); higher = stronger binding
Details: with parS DNA site
In short: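 On M9-minus-histidine containing 0.1 mM IPTG and 5 mM 3-AT, E. coli USO cells with a HIS3 reporter, site 19 bp from the promoter, grew 48 hours at 37°C to select Caulobacter ParB libraries randomised at four specificity codons. Plasmids from before and after were Illumina-sequenced, with three replicate libraries pooled and variants under 10 reads left out. Fitness is the log change in variant-to-wild-type read ratio, rescaled against cognate and non-cognate.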

Row | Variant | one-hybrid fitness for binding parS DNA
1 | KRRV | ≤ 0.2
2 | QLYN | ≤ 0.2
3 | CRQT | ≤ 0.2
4 | TDCC | ≤ 0.2
5 | QQAK | ≤ 0.2
6 | VCRG | ≤ 0.2
7 | YPNE | ≤ 0.2
8 | ELSR | ≤ 0.2
9 | QGTY | ≤ 0.2
10 | WLDG | ≤ 0.2
11 | MRRM | ≤ 0.2
12 | EALL | ≤ 0.2
13 | TFLG | ≤ 0.2
14 | PYMY | ≤ 0.2
15 | ADKG | ≤ 0.2
16 | VRKL | ≤ 0.2
17 | AHIW | ≤ 0.2
18 | QLDD | ≤ 0.2
19 | VWRA | ≤ 0.2
20 | ILLF | ≤ 0.2
21 | GHYF | ≤ 0.2
22 | SYTM | ≤ 0.2
23 | KRAF | ≤ 0.2
24 | YLQT | ≤ 0.2
25 | RFVW | ≤ 0.2

Row | Variant | one-hybrid fitness for binding parS DNA
26 | KEPE | ≤ 0.2
27 | NHTG | ≤ 0.2
28 | LPRL | ≤ 0.2
29 | HVIE | ≤ 0.2
30 | VECA | ≤ 0.2
31 | PVQL | ≤ 0.2
32 | VLRC | ≤ 0.2
33 | KSRM | ≤ 0.2
34 | RLES | 1
35 | PTTW | ≤ 0.2
36 | RTFT | 0.911
37 | QAKA | ≤ 0.2
38 | SCGP | ≤ 0.2
39 | SAEA | ≤ 0.2
40 | SWLG | ≤ 0.2
41 | QYIM | ≤ 0.2
42 | NCYT | ≤ 0.2
43 | MAHG | ≤ 0.2
44 | YLTT | ≤ 0.2
45 | REFC | ≤ 0.2
46 | LYLC | ≤ 0.2
47 | PEGR | ≤ 0.2
48 | QPTY | ≤ 0.2
49 | GTPY | ≤ 0.2
50 | SGLC | ≤ 0.2

Row | Variant | one-hybrid fitness for binding parS DNA
51 | HPSD | ≤ 0.2
52 | DRSC | ≤ 0.2
53 | VGKR | ≤ 0.2
54 | SRAC | ≤ 0.2
55 | PNDV | ≤ 0.2
56 | RDID | ≤ 0.2
57 | GHES | ≤ 0.2
58 | EQPR | ≤ 0.2
59 | KRTP | ≤ 0.2
60 | RLHM | 0.321
61 | EVCC | ≤ 0.2
62 | RMMP | ≤ 0.2
63 | DFPN | ≤ 0.2
64 | QSKR | ≤ 0.2
65 | PRVM | ≤ 0.2
66 | VLDC | ≤ 0.2
67 | HRTV | ≤ 0.2
68 | ERLP | ≤ 0.2
69 | HAKA | ≤ 0.2
70 | SAIV | ≤ 0.2
71 | QWFS | ≤ 0.2
72 | FSYR | ≤ 0.2
73 | MNSG | ≤ 0.2
74 | QNPH | ≤ 0.2
75 | CRHC | ≤ 0.2

Row | Variant | one-hybrid fitness for binding parS DNA
76 | REFQ | ≤ 0.2
77 | PIRM | ≤ 0.2
78 | VDFG | ≤ 0.2
79 | PCMD | ≤ 0.2
80 | PDPA | ≤ 0.2
81 | LSGP | ≤ 0.2
82 | YCLT | ≤ 0.2
83 | RPPC | ≤ 0.2
84 | KSGF | ≤ 0.2
85 | DVRK | ≤ 0.2
86 | HIVS | ≤ 0.2
87 | SRWG | ≤ 0.2
88 | VDGT | ≤ 0.2
89 | NQYV | ≤ 0.2
90 | TRHY | ≤ 0.2
91 | QARA | ≤ 0.2
92 | MCPG | ≤ 0.2
93 | QKDD | ≤ 0.2
94 | HFCS | ≤ 0.2
95 | GENS | ≤ 0.2
96 | HLYR | ≤ 0.2
97 | GEIG | ≤ 0.2
98 | TSQF | ≤ 0.2
99 | HMAF | ≤ 0.2
100 | VDFY | ≤ 0.2

Row | Variant | one-hybrid fitness for binding parS DNA
101 | VMCR | ≤ 0.2
102 | WDDV | ≤ 0.2
103 | EYPG | ≤ 0.2
104 | WQTT | ≤ 0.2
105 | QLMP | ≤ 0.2
106 | EPGC | ≤ 0.2
107 | EMIV | ≤ 0.2
108 | RFVR | ≤ 0.2
109 | TRKP | ≤ 0.2
110 | WLAC | ≤ 0.2
111 | PRIC | ≤ 0.2
112 | YAIV | ≤ 0.2
113 | SKEC | ≤ 0.2
114 | NFNS | ≤ 0.2
115 | YTYC | ≤ 0.2
116 | AQPT | ≤ 0.2
117 | QTFF | ≤ 0.2
118 | RWRR | ≤ 0.2
119 | HPRH | ≤ 0.2
120 | FDKC | ≤ 0.2
121 | IRAE | ≤ 0.2
122 | RKTP | ≤ 0.2
123 | HHIY | ≤ 0.2
124 | KGTQ | ≤ 0.2
125 | RQCP | ≤ 0.2

Row | Variant | one-hybrid fitness for binding parS DNA
126 | RFWP | ≤ 0.2
127 | NEHM | ≤ 0.2
128 | DMGR | ≤ 0.2
129 | DQPT | ≤ 0.2
130 | KFSY | ≤ 0.2
131 | RGVT | 0.33
132 | VQDS | ≤ 0.2
133 | GREG | ≤ 0.2
134 | RGVE | ≤ 0.2
135 | TAKG | ≤ 0.2
136 | PHGS | ≤ 0.2
137 | HNYG | ≤ 0.2
138 | PTRD | ≤ 0.2
139 | PIIA | ≤ 0.2
140 | FKQV | ≤ 0.2
141 | HGHM | ≤ 0.2
142 | SKYR | ≤ 0.2
143 | IQNR | ≤ 0.2
144 | LYKP | ≤ 0.2
145 | PNID | ≤ 0.2
146 | GPES | ≤ 0.2
147 | PVSV | ≤ 0.2
148 | QGMF | ≤ 0.2
149 | VGRY | ≤ 0.2
150 | CVVE | ≤ 0.2

Row | Variant | one-hybrid fitness for binding parS DNA
151 | QRNR | ≤ 0.2
152 | ADMS | ≤ 0.2
153 | RRLM | ≤ 0.2
154 | QEKF | ≤ 0.2
155 | CTRI | ≤ 0.2
156 | DETA | ≤ 0.2
157 | MGMD | ≤ 0.2
158 | GQNL | ≤ 0.2
159 | HLTR | ≤ 0.2
160 | PDSQ | ≤ 0.2
161 | ERCG | ≤ 0.2
162 | QHKT | ≤ 0.2
163 | NHHT | ≤ 0.2
164 | HYHR | ≤ 0.2
165 | PCNC | ≤ 0.2
166 | QHNM | ≤ 0.2
167 | WHFR | ≤ 0.2
168 | NKMT | ≤ 0.2
169 | NRNG | ≤ 0.2
170 | SIPT | ≤ 0.2
171 | LAFP | ≤ 0.2
172 | TPIS | ≤ 0.2
173 | KTCR | ≤ 0.2
174 | LNPC | ≤ 0.2
175 | SHNI | ≤ 0.2

Row | Variant | one-hybrid fitness for binding parS DNA
176 | PADT | ≤ 0.2
177 | KQVL | ≤ 0.2
178 | FHML | ≤ 0.2
179 | CMTS | ≤ 0.2
180 | GTHK | ≤ 0.2
181 | DEYI | ≤ 0.2
182 | WSPW | ≤ 0.2
183 | SEMC | ≤ 0.2
184 | NLHC | ≤ 0.2
185 | GYNK | ≤ 0.2
186 | EWPA | ≤ 0.2
187 | AKPP | ≤ 0.2
188 | FRDM | ≤ 0.2
189 | VSIC | ≤ 0.2
190 | PPRS | ≤ 0.2
191 | TSGD | ≤ 0.2
192 | QKAC | ≤ 0.2
193 | RRYN | 0.557
194 | GGLS | ≤ 0.2
195 | DSRF | ≤ 0.2
